Screen size: about 110,000 compounds; about 230 (0.21%) showed an effect of 50% or more. Some of the results follow.
Biological target: DPAP1 (Plasmodium falciparum, UniProt Q8IIJ9)
Assay: primary screen, percent inhibition; read by cleavage of a fluorogenic dipeptide substrate; higher = more effect of the substance
Set-up: species or system P. falciparum D10 trophozoite lysates; single well
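Also: 30 min substrate incubation versus DMSO and 10 µM JCP410 controls.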

DPAP1, sequence (Q8IIJ9 whole entry, looked up): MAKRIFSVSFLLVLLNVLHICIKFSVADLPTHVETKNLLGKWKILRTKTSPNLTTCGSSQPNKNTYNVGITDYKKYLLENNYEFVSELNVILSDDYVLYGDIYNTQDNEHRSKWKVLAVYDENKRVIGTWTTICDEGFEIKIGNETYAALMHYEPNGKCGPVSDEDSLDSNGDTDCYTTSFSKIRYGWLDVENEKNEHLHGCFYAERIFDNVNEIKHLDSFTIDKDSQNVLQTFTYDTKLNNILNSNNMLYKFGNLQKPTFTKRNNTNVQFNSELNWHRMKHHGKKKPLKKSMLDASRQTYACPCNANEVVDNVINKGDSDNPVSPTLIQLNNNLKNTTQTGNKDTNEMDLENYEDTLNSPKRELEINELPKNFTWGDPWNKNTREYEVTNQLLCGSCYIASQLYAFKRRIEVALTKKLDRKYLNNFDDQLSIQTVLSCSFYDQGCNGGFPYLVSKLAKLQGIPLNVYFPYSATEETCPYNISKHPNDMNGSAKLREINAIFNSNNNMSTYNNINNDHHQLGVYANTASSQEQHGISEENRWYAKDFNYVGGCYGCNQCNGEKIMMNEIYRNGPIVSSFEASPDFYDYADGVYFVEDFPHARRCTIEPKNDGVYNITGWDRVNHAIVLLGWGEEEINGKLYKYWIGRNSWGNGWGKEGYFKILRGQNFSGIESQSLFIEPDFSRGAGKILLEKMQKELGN

| SMILES | % Inhibition @ 10 uM [%] |
| --- | --- |
| Cc1cccc(-c2cc(C(=O)Nc3ccccc3C(N)=O)c3ccccc3n2)c1 | 10.2 |
| CC(C)(C)NC(=O)c1oc2ccccc2c1NC(=O)c1cccc(F)c1 | -0.909 |
| Cc1c(C(=O)NC(C)(C)C)sc2nc(-c3ccccc3)cn12 | -7.53 |
| CCN(CC)CCNC(=O)COc1ccc(Cl)cc1Cl | 4.35 |
| Nc1ccc(S(=O)(=O)NCCc2ccccc2)cc1 | -7.96 |
| N#Cc1c(-n2cccc2C#N)sc2c1CCCC2 | -5.11 |
| CC(=O)/C(=C1\NC(C)(C)Cc2cc(C)c(C)cc21)c1ccccc1 | 0.587 |
| CC1(C)CC(NCCC#N)CC(C)(C)N1 | 2.78 |
| Cc1ccccc1OCC(=O)N1CCN(C(=O)COc2ccccc2C)CC1 | 6.79 |
| COC(=O)c1ccc(OP2(=O)COc3ccccc3OC2)cc1 | 0.413 |
| Cc1c(NC(=O)c2c(Cl)cccc2Cl)c(=O)n(-c2ccccc2)n1C | 3.44 |
| CC(C)NC(=O)c1ccc(CS(=O)Cc2ccc(Cl)cc2)o1 (stereo not drawn) | 2.03 |
| CCOC(=O)C1=C(C)N=C(SC)NC1c1ccc(N(C)C)cc1 (stereo not drawn) | 0.219 |
| Cc1cc2c(cc3c(=O)n(CC(=O)N4CCCCC4)ncn32)s1 | 0.0198 |
| CCSC1=C(C#N)C(c2ccc(Cl)cc2)CC(=O)N1 (stereo not drawn) | -11.9 |
| CC1(C)Cc2ccccc2C2CC(O)C(=O)N21 (stereo not drawn) | -0.13 |
| CCn1c2ccccc2c2nnc(N3CCc4ccccc4C3)nc21 | 15.1 |
| O=C(O)c1n[nH]c(N2C(=O)c3ccccc3C2=O)n1 | -4.15 |
| COCCCNC(=O)C1Sc2nnc(-c3ccccc3)n2NC1c1ccc(OC)c(Cl)c1 (stereo not drawn) | 0.0289 |
| Cc1ccc2c(c1Br)C1(C(=O)N2)C(C#N)=C(N)OC2=C1C(=O)CCC2 (stereo not drawn) | 2.4 |
| O=S(=O)(NCc1ccccc1Cl)c1ccc(-n2cccn2)cc1 | 1.77 |
| Cc1ccc(S(=O)(=O)NCC2CCC(C(=O)N(C)C3CCCCC3)CC2)cc1 (stereo not drawn) | 5.47 |

| SMILES | % Inhibition @ 10 uM [%] |
| --- | --- |
| Cc1ccc(OCC(O)CN2CCN(c3ccc(C)cc3)CC2)cc1 (stereo not drawn) | 0.189 |
| O=C1NC(=O)/C(=C\c2c(OCc3ccc(Br)cc3)ccc3ccccc23)N1 | 5.18 |
| COc1cc(-c2noc(CN3CCOCC3)n2)cc(OC)c1OC | -2.16 |
| O=C(Cn1ncc2c3ccccc3n(Cc3ccccc3)c2c1=O)N1CCN(C2CCCCC2)CC1 | 6.46 |
| COc1ccc(C2C(C(=O)NCCCN3CCOCC3)c3cc(OC)c(OC)cc3C(=O)N2C)cc1 (stereo not drawn) | 3.61 |
| O=C(Cc1nnc(-c2ccc(Br)cc2)o1)NC1CCN(Cc2ccccc2)CC1 | 2.28 |
| CCc1c(C)sc(NC(=O)c2c(-c3c(F)cccc3Cl)noc2C)c1C(N)=O | 5.42 |
| C/C(=C1/SC(N2CC(C)OC(C)C2)=NC1=O)c1ccccc1 (stereo not drawn) | 0.147 |
| CC1CCc2nn(CC(=O)N3CCN(C(=O)c4ccco4)CC3)cc2C1 (stereo not drawn) | 4.95 |
| O=S(=O)(Nc1c(O)nc2ccc(Cl)cc2c1-c1ccccc1)c1ccccc1 | 14 |
| O=C(Cn1ncc2c(Cl)cccc21)NCCN1CCOCC1 | -1.11 |
| CC(C(=O)Nc1sc2c(c1C(=O)NCc1ccco1)CCCC2)N1C(=O)c2ccccc2C1=O (stereo not drawn) | 2.67 |
| N#C/C(=C\c1ccc2c(c1)OCO2)c1nc2ccccc2[nH]1 | 1.29 |
| COc1ccc(C(=O)Nc2cc(C)cc(C)c2)cc1 | 2.22 |
| Cc1ccc(NC(=O)C2CCN(C(=O)c3ccc(Br)cc3)CC2)c(C)c1 | -2.58 |
| CSc1cccc(NC(=O)C2C3C=CC(O3)C2C(=O)O)c1 (stereo not drawn) | -8.38 |
| CCc1cccc2c(C#N)cn(CC(=O)NCc3ccccc3)c12 | -0.105 |
| O=C(CCCN1C(=O)CSc2ncccc21)N1CCOCC1 | -0.637 |
| CCCCCn1c(COC)nc2ccccc21 | -7.83 |
| CC1CCC(NCCCN2CCOCC2)CC1 (stereo not drawn) | -5.59 |
| COCCNC(=O)c1nn(C)c(=O)c2ccccc12 | 3.93 |
| CCCCNC(=O)c1noc2c1CCc1ccccc1-2 | -3.12 |

| SMILES | % Inhibition @ 10 uM [%] |
| --- | --- |
| Cc1ccsc1CN1CCCC1CO (stereo not drawn) | -5.31 |
| Cc1ccc2ncc(C(=O)c3ccccc3)c(N3CCOCC3)c2c1 | 0.54 |
| NC(=O)c1sc2ncc([N+](=O)[O-])cc2c1N | 5 |
| O=C(O)c1ccc(CNC(=O)c2ccc(C(F)(F)F)cc2)cc1 | -1.24 |
| COc1cc(CN(C)CCN(C)C)cc(OC)c1 | -1.05 |
| Cn1cnc2c(=O)oc3ccc(S(=O)(=O)N4CCN(Cc5ccccc5)CC4)cc3c21 | -0.591 |
| Cc1ccc(-c2onc(C)c2C)cc1S(=O)(=O)N1CCCCC1C (stereo not drawn) | -3.18 |
| Cc1ccc(C2CC(=O)N=C(NC(=O)CCCOc3ccccc3)N2)cc1 (stereo not drawn) | 6.29 |
| COc1cc(C2=NOC(C(=O)NCC(C)C)C2)cc(OC)c1OC (stereo not drawn) | -3.94 |
| CN(CCNC(=O)Cn1ncc2c1-c1ccccc1OC2)C1CCCCC1 | 0.775 |
| Cc1ccc(C2(c3ccc(C)cc3)CC2C(=O)NCc2ccco2)cc1 (stereo not drawn) | -2.03 |
| CC(C)(C)c1ccc(OCc2ccc(C(=O)O)cc2)cc1 | -3 |
| O=C(O)c1ccc2c(c1)C1C=CCC1C(c1cccc(Cl)c1Cl)N2 (stereo not drawn) | 0.132 |
| O=C(NCc1ccccn1)c1ccc(CSc2nc3ccncc3n2Cc2ccccc2F)cc1 | 3.3 |
| N=C1S/C(=C\c2ccco2)C(=O)N1c1nccs1 | -3.74 |
| CCc1nc(N)c(C#N)c(-c2ccc(Br)s2)c1C | -3.13 |
| Cc1cccc(OCc2nnc(SCC(=O)Nc3nc(-c4ccccc4)c(C)s3)o2)c1 | 2.35 |
| Cc1nc(CSc2nnc(-c3ccccc3)n2-c2ccccc2)cs1 | 0.9 |
| Cc1cc(C)cc(NC(=O)c2cccc(N3C(=O)C4C5C=CC(C5)C4C3=O)c2)c1 (stereo not drawn) | 1.1 |
| COc1cccc(C(=O)NC(=O)Nc2nc(-c3ccccc3)cc(C(F)(F)F)n2)c1 | -2.63 |
| COc1ccc(NC(=O)CN(c2ccc(Cl)cc2C)S(C)(=O)=O)c(OC)c1 | -3.18 |
| CNc1ccccc1C(=O)N[C@@H](CC(C)C)C(=O)NCC#N | -3.04 |

— paper PMC6919601, “Identification of Plasmodium dipeptidyl aminopeptidase allosteric inhibitors by high throughput screening” (PLoS ONE, 2019)
